This is an account of results in PubChem BioAssay AID1745853 (National Center for Advancing Translational Sciences (NCATS), 2022).

Experiment in all cases: Primary Screen for Target Class Profiling of Small Molecule Inhibitors of Methyltransferases
For assay [1], the target named is Glycine N-methyltransferase (Homo sapiens) (UniProt Q14749). The note with it: purified enzyme, MTase-Glo SAH luminescence; measured here: GNMT inhibition; at 40 µM; stronger effect = lower value. Summed up:
(§1)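 Each enzyme was reacted with SAM and its substrate, with compounds tested once at 40 uM; SAH formed was read by MTase-Glo luminescence.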

Assay [2] addresses Guanidinoacetate N-methyltransferase (Homo sapiens) (UniProt Q14353). The conditions noted are these: purified enzyme, MTase-Glo SAH luminescence; measured here: GAMT inhibition; at 40 µM; stronger effect = lower value. Summed up:
as §1

In assay [3] the target is Histamine N-methyltransferase (Homo sapiens) (UniProt P50135). The conditions noted are these: purified enzyme, MTase-Glo SAH luminescence; measured here: HNMT inhibition; at 40 µM; stronger effect = lower value. Summed up:
as §1

Assay [4] has as its target Nicotinamide N-methyltransferase (Homo sapiens) (UniProt P40261). The note with it: purified enzyme, MTase-Glo SAH luminescence; measured here: NNMT inhibition; at 40 µM; stronger effect = lower value. The gist of the method:
as §1

Assay [5] has as its target Phenylethanolamine N-methyltransferase (Homo sapiens) (UniProt P11086). The note with it: purified enzyme, MTase-Glo SAH luminescence; measured here: PNMT inhibition; at 40 µM; stronger effect = lower value. The gist of the method: as §1

The other results are listed elsewhere or left out. Shown are side measurements of this screen, not its main read-out; they come without a call.
On the % scale 0 is the no-effect control and ±100 the full control effect.

For the compound `Cc1nn(-c2ccccc2)c2c1C(C(C)C)N(C1CN([S+](=O)([O-])c3cccc(C(F)(F)F)c3)C1)C2=O` (stereo unspecified), the activity change, negative = inhibition was -4.27% in assay [1]; -3.3% in assay [2]; -3.77% in assay [3]; -8.79% in assay [4]; -29.5% in assay [5].

On to `COc1ccc(-c2cc3nc4c(c(=O)n3[nH]2)CN(C(=O)c2ccc(C)nc2)CC4)cc1`, for which the activity change, negative = inhibition is -6.85% in assay [1]; -3.3% in assay [2]; -3.67% in assay [3]; -2.95% in assay [4]; -1.26% in assay [5].

Regarding `CC1(C)CC[C@]2(C(=O)O[C@@H]3O[C@H](CO)[C@@H](O)[C@H](O)[C@H]3O)CC[C@]3(C)C(=CCC4[C@@]5(C)C[C@@H](O)[C@H](O)[C@@](C)(CO)C5[C@H](O)C[C@]43C)C2[C@@H]1O` (stereo partly specified), the activity change, negative = inhibition is 0% in assay [1]; 1.99% in assay [2]; 4.67% in assay [3]; -10.6% in assay [4]; 4.13% in assay [5].

Consider `O=C(NCc1ccccc1)c1cnc2n1CCN(Cc1ccccc1)CC2`, for which the activity change, negative = inhibition in assay [1] is -1.67%; in assay [2], -2.7%; in assay [3], -2.14%; in assay [4] it was -3.75%; in assay [5], -0.872%.

Consider `Cc1ccc(NC(=O)CSc2nnc3n(Cc4ccc(F)cc4)c(=O)c4ccccc4n23)cc1C`, for which the activity change, negative = inhibition in assay [1] is 8.63%; in assay [2], 2.56%; in assay [3] it was 14.7%; in assay [4], -3.25%; in assay [5], 8.65%.

With `COc1ccc(CC(=O)N2CCCC3(Cc4ccccc4CN3C(=O)C3CCCC3)C2)cc1` (stereo unspecified), the activity change, negative = inhibition in assay [1] was -8.09%; in assay [2], -4.18%; in assay [3], -6.07%; in assay [4] it was -15.4%; in assay [5] it was -10.7%.

`Cc1cc(C)n(Cc2ccc(C(=O)N3CC4CC(C3)[C@H]3CCCC(=O)N3C4)o2)n1` (stereo partly specified): the activity change, negative = inhibition in assay [1] is -3.03%; in assay [2], -3.53%; in assay [3], -0.873%; in assay [4] it was -4.46%; in assay [5], -4.6%.

Consider `CN(C)C[C@@H]1CN(C2CCOCC2)C[C@H]1NC(=O)c1nccc2ccccc12`, for which the activity change, negative = inhibition in assay [1] was -4.51%; in assay [2], -4.52%; in assay [3] it was -0.586%; in assay [4] it was -7.38%; in assay [5] it was -2.82%.

Turning to `COc1ccc(C2CNC(=O)C2)cc1OC1CCCC1` (stereo unspecified), the activity change, negative = inhibition is 3.58% in assay [1]; 11.1% in assay [2]; 3.69% in assay [3]; -7.5% in assay [4]; 1.22% in assay [5].

For `O=Nc1c(-c2c(O)[nH]c3ccc(F)cc23)[nH]c2ccccc12`, the activity change, negative = inhibition in assay [2] is -28.9%; in assay [4] it was -47%; in assay [5], -26.8%.

Turning to `CCN(CC)c1ncnc2c1ncn2[C@@H]1O[C@H](COP(=O)(O)OP(=O)(O)C(Br)(Br)P(=O)(O)O)[C@@H](O)[C@H]1O`, the activity change, negative = inhibition in assay [1] is -3.71%; in assay [2], 4.04%; in assay [3], -1.45%; in assay [4], -4.47%; in assay [5], 5.53%.

On to `CC(/C=C/c1cccc(Oc2ccc(F)cc2)c1)N(O)C(N)=O` (stereo unspecified), for which the activity change, negative = inhibition was -4.39% in assay [1]; 6.38% in assay [2]; -1.86% in assay [3]; -11.4% in assay [4]; 0.76% in assay [5].

As to `COc1cccc(CNC(=O)c2ncn3c2C(=O)N(C2CC2)C(C)(C(=O)NCc2ccc(F)cc2)C3)c1` (stereo unspecified), the activity change, negative = inhibition in assay [1] is 1.05%; in assay [2] it was 2.41%; in assay [3], 10.2%; in assay [4], 6.67%; in assay [5], 9.99%.

`COCCCN1CCC(CNc2nccc(-c3cnn(C)c3)n2)C1` (stereo unspecified): the activity change, negative = inhibition in assay [1] was -5.11%; in assay [2], -5.34%; in assay [3] it was -6.91%; in assay [4], -5.74%; in assay [5], 0.654%.

On to `CC1(C(=O)NC2CCCCC2)Cn2c(cc3occc32)C(=O)N1Cc1ccccc1Br` (stereo unspecified), for which the activity change, negative = inhibition in assay [1] was -6.53%; in assay [2], 3.33%; in assay [3] it was -7.42%; in assay [4], -2.83%; in assay [5], -4.92%.

Take `C=C(C)C(=O)O[C@H]1[C@H]2C(=C)C(=O)O[C@@H]2C[C@@H](C)/C=C\C(=O)[C@](C)(O)[C@@H]1OC(C)=O`: the activity change, negative = inhibition in assay [1] was 2.6%; in assay [2] it was 7.26%; in assay [3] it was 8.97%; in assay [4] it was -4.99%; in assay [5] it was 8.58%.

For `CO[C@@H]1CC[C@H](OC[C@]2(COC(=O)c3ccc(C)[nH]3)[C@H](OC(C)=O)CC[C@@]3(C)[C@@H]4CC=C(C)[C@@H](C5=C(O)C(=O)OC5O)[C@]4(C)CC[C@@H]32)O[C@H]1C` (stereo partly specified), the activity change, negative = inhibition in assay [1] is 0%; in assay [2], -10.4%; in assay [3], -2.29%; in assay [4] it was -20.3%; in assay [5], -2.34%.

Take `O=C(/C=C/c1ccc(O)cc1)O[C@H]1[C@@H]2C=CO[C@@H](O[C@@H]3O[C@H](CO)[C@@H](O)[C@H](O)[C@H]3O)[C@@H]2[C@@]2(CO)O[C@@H]12`: the activity change, negative = inhibition in assay [1] is 0.266%; in assay [2], 2.58%; in assay [3] it was 1.58%; in assay [4], -9.14%; in assay [5] it was 4.56%.

`CC1(C(=O)NC2CCCCC2)Cn2nc(-c3ccco3)cc2C(=O)N1Cc1ccc(Cl)cc1` (stereo unspecified): the activity change, negative = inhibition in assay [1] is -7.28%; in assay [2], 0%; in assay [3], 1.18%; in assay [4], 0.004%; in assay [5], -1.62%.

For `COc1ccc2cc3n(c2c1)CC(C)(C(=O)NC1CCCC1)N(CCC(C)C)C3=O` (stereo unspecified), the activity change, negative = inhibition was -4.14% in assay [1]; 1.27% in assay [2]; 0.302% in assay [3]; 4.77% in assay [4]; -5.78% in assay [5].

As to `COc1ccc(/C=C\C(=O)O)c(O[C@@H]2O[C@H](CO)[C@@H](O)[C@H](O)[C@H]2O)c1`, the activity change, negative = inhibition in assay [1] was 0%; in assay [2], 2.92%; in assay [3], 1.93%; in assay [4], -8.64%; in assay [5], 4.17%.

`c1ccc(CNc2cc(-c3cc(N4CCCCC4)ncn3)c3cc[nH]c3n2)nc1`: the activity change, negative = inhibition was -52.9% in assay [1]; -45.8% in assay [2]; -62.2% in assay [3]; -51.2% in assay [4]; -55.9% in assay [5].

For the compound `COc1cc2nc(N3CCCCC3)nc(NC3CCN(Cc4ccccc4)CC3)c2cc1OC`, the activity change, negative = inhibition in assay [2] is 11.4%; in assay [4], -53.2%; in assay [5], 0.166%.

`Cc1ccc(NC(=O)CSc2nnc3n(Cc4ccc(F)cc4)c(=O)c4ccccc4n23)c(C)c1`: the activity change, negative = inhibition was determined as 8.86% in assay [1]; 0% in assay [2]; 12.8% in assay [3]; 5.39% in assay [4]; 5.69% in assay [5].

With `CCN(CC)c1ncccc1CNC(=O)Nc1cccc(OC)c1`, the activity change, negative = inhibition in assay [1] was -0.105%; in assay [2], -2.31%; in assay [3], -6.11%; in assay [4] it was -1.29%; in assay [5] it was -0.439%.

Take `O=C(NC[C@H]1O[C@@H](CO)[C@@H](O)[C@H]1N1CCOCC1)c1cccs1`: the activity change, negative = inhibition in assay [1] was -4.34%; in assay [2], -7.36%; in assay [3] it was -6.35%; in assay [4] it was -7.33%; in assay [5], -4.89%.

As for `COc1ccc(-c2cc3n(n2)CC(C)(C(=O)NCc2ccccc2OC)N(Cc2ccccc2OC)C3=O)cc1` (stereo unspecified), the activity change, negative = inhibition in assay [1] is 0.757%; in assay [2], -0.529%; in assay [3], 1.73%; in assay [4], -4.37%; in assay [5], -4.54%.

Take `CCC(=O)N1CCCC1c1nc(CCOCC2CCCC2)no1` (stereo unspecified): the activity change, negative = inhibition in assay [1] is -3.06%; in assay [2], -2.92%; in assay [3] it was -2.07%; in assay [4] it was -4.35%; in assay [5], 3.09%.

Turning to `O=S(=O)(c1ccccc1)N1CCN(c2ccnc3ccnn23)CC1`, the activity change, negative = inhibition in assay [1] is -4.3%; in assay [2], -3.98%; in assay [3], -0.844%; in assay [4], -13%; in assay [5] it was -1.94%.

For `CN1CC[C@@H](c2c(O)cc(O)c3c(=O)cc(-c4ccc(C(F)(F)F)cc4Cl)oc23)[C@@H]1CO`, the activity change, negative = inhibition in assay [1] was 5.22%; in assay [2], 8.11%; in assay [3], 6.29%; in assay [4] it was -36.2%; in assay [5] it was 7.78%.

Regarding `Cn1c2c(c3ccccc31)C(C(=O)NCc1ccccc1)N(CCC1=CCCCC1)C(=O)CS2` (stereo unspecified), the activity change, negative = inhibition was 0.814% in assay [1]; 0% in assay [2]; 1.55% in assay [3]; -3.75% in assay [4]; -0.775% in assay [5].

For `CCC(C)NC(=O)c1ccc2c(=O)n(C)c3nn(CC(=O)Nc4cc(C)cc(C)c4)c(=O)n3c2c1` (stereo unspecified), the activity change, negative = inhibition in assay [1] was 3.22%; in assay [2] it was 4.96%; in assay [3] it was 1.32%; in assay [4] it was 3.4%; in assay [5], 5.9%.

As for `Cn1ncc(CN2CC[C@@H](c3ccc4c(c3)OCO4)[C@H](O)C2)c1C1CC1`, the activity change, negative = inhibition in assay [1] is -4.47%; in assay [2] it was -3.8%; in assay [3], -0.902%; in assay [4], -3.43%; in assay [5] it was 1.33%.

On to `CCCN1C(=O)c2c(C(=O)NCc3ccccc3OC)ncn2CC1(C)C(=O)NCc1ccc(F)cc1` (stereo unspecified), for which the activity change, negative = inhibition in assay [1] was -7.87%; in assay [2], 0.71%; in assay [3] it was -3.51%; in assay [4], -0.176%; in assay [5], 3.06%.

With `c1ccc(CCc2nc3nccc(-c4cccnc4)n3n2)cc1`, the activity change, negative = inhibition was -8.79% in assay [1]; -10.6% in assay [2]; -5.67% in assay [3]; -7.86% in assay [4]; -2.11% in assay [5].
